We go through 16 molecules from publication PMC4917241.

By UniProt entry, the sequences of proteins in these tests, tags left out. Where a name states a change or a piece, a line headed by the entry shows the natural chain unless it says otherwise.
UniProt Q96GD4: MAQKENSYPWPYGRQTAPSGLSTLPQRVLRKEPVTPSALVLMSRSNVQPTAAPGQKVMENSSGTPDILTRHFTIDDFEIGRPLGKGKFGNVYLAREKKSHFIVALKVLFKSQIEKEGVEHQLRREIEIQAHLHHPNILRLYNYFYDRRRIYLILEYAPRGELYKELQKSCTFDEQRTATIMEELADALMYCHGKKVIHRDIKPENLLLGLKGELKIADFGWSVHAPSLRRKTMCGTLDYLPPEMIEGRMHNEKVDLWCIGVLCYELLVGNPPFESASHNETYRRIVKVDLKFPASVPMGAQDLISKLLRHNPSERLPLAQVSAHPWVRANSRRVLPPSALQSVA
UniProt O15392: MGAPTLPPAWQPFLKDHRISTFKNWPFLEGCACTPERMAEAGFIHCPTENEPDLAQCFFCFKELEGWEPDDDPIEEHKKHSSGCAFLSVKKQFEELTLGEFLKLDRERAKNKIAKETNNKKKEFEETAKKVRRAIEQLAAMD
UniProt Q9NQS7: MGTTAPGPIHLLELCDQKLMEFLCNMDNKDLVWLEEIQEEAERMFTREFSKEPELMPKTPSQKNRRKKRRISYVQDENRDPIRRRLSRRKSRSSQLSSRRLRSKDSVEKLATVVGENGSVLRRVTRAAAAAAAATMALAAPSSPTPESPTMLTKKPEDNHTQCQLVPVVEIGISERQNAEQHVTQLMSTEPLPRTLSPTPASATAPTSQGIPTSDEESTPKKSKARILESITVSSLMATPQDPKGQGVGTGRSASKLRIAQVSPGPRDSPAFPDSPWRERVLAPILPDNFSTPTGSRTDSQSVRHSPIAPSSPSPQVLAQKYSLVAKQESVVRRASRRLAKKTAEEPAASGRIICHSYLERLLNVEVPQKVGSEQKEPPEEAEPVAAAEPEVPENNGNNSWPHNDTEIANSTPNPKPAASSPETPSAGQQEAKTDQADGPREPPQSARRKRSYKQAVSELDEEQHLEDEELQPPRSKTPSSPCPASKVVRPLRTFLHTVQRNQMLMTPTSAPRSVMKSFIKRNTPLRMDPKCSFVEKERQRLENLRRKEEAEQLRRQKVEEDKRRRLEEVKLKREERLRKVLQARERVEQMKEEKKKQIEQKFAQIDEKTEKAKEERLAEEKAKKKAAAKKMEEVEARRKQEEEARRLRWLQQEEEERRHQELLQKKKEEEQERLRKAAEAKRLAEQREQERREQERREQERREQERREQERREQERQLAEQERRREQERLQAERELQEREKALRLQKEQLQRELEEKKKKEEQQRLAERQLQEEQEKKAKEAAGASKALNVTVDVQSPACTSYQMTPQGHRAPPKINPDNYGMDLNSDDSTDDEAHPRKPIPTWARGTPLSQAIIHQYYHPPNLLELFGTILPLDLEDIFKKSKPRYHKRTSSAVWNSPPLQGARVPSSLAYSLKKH

The target of assay [1] is T1, GST-Aurora-C C-terminus (amino acids 41–309) (human) (UniProt Q9UQB9).
T1 sequence: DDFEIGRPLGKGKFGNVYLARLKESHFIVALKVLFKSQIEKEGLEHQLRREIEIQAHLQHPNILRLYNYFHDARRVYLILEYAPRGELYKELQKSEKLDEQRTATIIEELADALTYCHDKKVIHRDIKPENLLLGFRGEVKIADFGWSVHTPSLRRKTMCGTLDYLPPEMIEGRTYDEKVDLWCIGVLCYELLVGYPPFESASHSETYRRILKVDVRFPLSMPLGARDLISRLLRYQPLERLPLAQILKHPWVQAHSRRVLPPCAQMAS
In words: pull-down; 35S-methionine labeled in vitro translated protein incubated with GST fusion protein on beads in NET-N buffer (50 mM Tris pH 8.0, 150 mM NaCl, 0.5% NP-40) 1.5 h at 4°C; SDS-PAGE, autoradiography; only the target purified.

Assay [2] concerns the target T2, GST-Aurora-C N-terminus (amino acids 1–40) (human) (UniProt Q9UQB9).
T2 sequence: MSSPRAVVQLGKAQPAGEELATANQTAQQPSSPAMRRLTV
The description is as above.

For assay [3], the target named is T3, GST-Aurora-C full-length (human) (UniProt Q9UQB9).
T3 sequence: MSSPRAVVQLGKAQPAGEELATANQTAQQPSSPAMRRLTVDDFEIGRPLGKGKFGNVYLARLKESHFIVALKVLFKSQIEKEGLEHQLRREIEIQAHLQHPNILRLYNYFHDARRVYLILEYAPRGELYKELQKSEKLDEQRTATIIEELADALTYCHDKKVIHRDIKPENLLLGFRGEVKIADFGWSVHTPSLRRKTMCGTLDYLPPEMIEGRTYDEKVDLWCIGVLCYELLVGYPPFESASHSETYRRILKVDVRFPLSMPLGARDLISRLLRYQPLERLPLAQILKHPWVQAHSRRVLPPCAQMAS
Described as above.

The next assay concerns the target T4, Flag-Aurora-C (human) (UniProt Q9UQB9).
T4 sequence: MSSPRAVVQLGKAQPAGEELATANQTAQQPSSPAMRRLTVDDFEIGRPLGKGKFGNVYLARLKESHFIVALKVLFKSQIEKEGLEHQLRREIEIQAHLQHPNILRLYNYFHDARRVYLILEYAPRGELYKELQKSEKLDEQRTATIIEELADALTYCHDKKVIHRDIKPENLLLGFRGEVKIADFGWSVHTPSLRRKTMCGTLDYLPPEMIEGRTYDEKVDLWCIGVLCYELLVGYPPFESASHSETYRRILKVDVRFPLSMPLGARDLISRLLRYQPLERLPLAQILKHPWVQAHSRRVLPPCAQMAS
In words: co-IP; 293T cells co-transfected with HA-INCENP and Flag tagged Aurora kinase (with or without the other GFP tagged kinase and His-Survivin); anti-Flag antibody; immunoblot or kinase assay of the immune complex. In general terms: In western blotting, separated proteins are transferred to a membrane and probed.

The target of another assay is GST-Aurora-B WT (human) (UniProt Q96GD4). The experiment in a line: pull-down; Sf-9 cells co-infected with baculoviruses for GST-Aurora-C or GST-Aurora-B and His-INCENP; isolated on glutathione sepharose; anti-INCENP immunoblot.
For assay [4], the target named is T3, GST-Aurora-C full-length (human). Described as above.
In assay [5] the target is Aurora-B (endogenous) (human (endogenous in PC-3, SK-OV-3, MCF-10A)) (UniProt Q96GD4). In words: co-IP; endogenous proteins of SK-OV-3 and MCF-10A cells; data not shown.
Assay [6] concerns the target T5, Aurora-C (endogenous) (human (endogenous in PC-3, SK-OV-3, MCF-10A)) (UniProt Q9UQB9).
T5 sequence: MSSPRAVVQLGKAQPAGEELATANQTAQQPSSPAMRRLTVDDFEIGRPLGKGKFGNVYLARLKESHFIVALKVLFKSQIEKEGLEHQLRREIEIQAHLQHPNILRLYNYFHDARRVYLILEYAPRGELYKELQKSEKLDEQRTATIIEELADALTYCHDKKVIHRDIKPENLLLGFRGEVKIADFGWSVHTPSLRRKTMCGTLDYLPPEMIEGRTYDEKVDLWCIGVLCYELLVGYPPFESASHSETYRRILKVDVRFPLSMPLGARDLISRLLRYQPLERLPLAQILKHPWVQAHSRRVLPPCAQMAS
The description is as above.

The target of assay [7] is T6, GFP-Aurora-C (Tet-on HeLa cells) (human) (UniProt Q9UQB9).
T6 sequence: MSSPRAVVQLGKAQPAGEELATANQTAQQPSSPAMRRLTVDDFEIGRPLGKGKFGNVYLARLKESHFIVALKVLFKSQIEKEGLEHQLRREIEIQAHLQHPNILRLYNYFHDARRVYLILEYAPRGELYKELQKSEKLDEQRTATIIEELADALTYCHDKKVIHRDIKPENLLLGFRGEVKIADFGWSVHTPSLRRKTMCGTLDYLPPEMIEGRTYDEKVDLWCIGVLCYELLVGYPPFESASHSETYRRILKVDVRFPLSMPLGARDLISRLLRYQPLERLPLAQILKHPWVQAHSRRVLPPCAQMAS
The experiment in a line: co-IP; GFP-Aurora-C from Tet-on HeLa cells immunoprecipitated with anti-GFP antibody; endogenous partners; data not shown.

Assay [8] has as its target Aurora-B (endogenous) (human (endogenous in PC-3, SK-OV-3, MCF-10A)) (UniProt Q96GD4). The experiment in a line: co-IP; endogenous proteins; nocodazole-treated (500 ng/ml) PC-3 lysate in L buffer with 250 mM NaCl; anti-Aurora-C, anti-Survivin or anti-Aurora-B antibody, normal IgG as control; immunoblot.
Assay [9] addresses T5, Aurora-C (endogenous) (human (endogenous in PC-3, SK-OV-3, MCF-10A)). The assay is described as above.
For another assay, the target named is Flag-Aurora-B (human) (UniProt Q96GD4). The experiment in a line: co-IP; 293T cells co-transfected with HA-INCENP and Flag tagged Aurora kinase (with or without the other GFP tagged kinase and His-Survivin); anti-Flag antibody; immunoblot or kinase assay of the immune complex.
The next assay deals with GST-Survivin (human) (UniProt O15392). In words: pull-down; 35S-methionine labeled in vitro translated protein incubated with GST fusion protein on beads in NET-N buffer (50 mM Tris pH 8.0, 150 mM NaCl, 0.5% NP-40) 1.5 h at 4°C; SDS-PAGE, autoradiography; only the target purified.
The target of assay [10] is Survivin (endogenous) (human (endogenous in PC-3, SK-OV-3, MCF-10A, HeLa)) (UniProt O15392). In words: co-IP; endogenous proteins of SK-OV-3 and MCF-10A cells; data not shown.
For assay [11] the target is unchanged. The experiment in a line: co-IP; endogenous proteins; nocodazole-treated (500 ng/ml) PC-3 lysate in L buffer with 250 mM NaCl; anti-Aurora-C, anti-Survivin or anti-Aurora-B antibody, normal IgG as control; immunoblot.

No constants are given. Whether binding was seen depends on the method and setting. Binding seen in cells or lysates may run through a third protein. Some results given as binding are weak or reduced against the parent protein; the word gives no strength. For some assays here: Where a sequence is shown, tags or fusion partners need not be part of it.

With “35S-labeled Survivin (in vitro translated) (from UniProt O15392 1-142)”, the binding result in assay [1] is reported as “binds”; in assay [2], “no binding”; in [3], “binds”.
On to “His-Survivin S20A (from UniProt O15392 1-142)”, for which the binding result with Flag-Aurora-C (human) is on record as “binds”.
As to “His-INCENP full-length WT (from UniProt Q9NQS7 1-918)”, the binding result (with GST-Aurora-B WT (human); in [4]) was “binds” in each case.
Consider “Inner Centromere Protein (INCENP) (endogenous) (from UniProt Q9NQS7 1-918)”, for which the binding result in assay [5], in assay [6], in assay [7], in assay [8] and in [9] was “binds” throughout.
As to “Survivin (endogenous) (from UniProt O15392 1-142)”, the binding result in [5], in assay [6], in assay [7], in [8] and in [9] was “binds” each time.
For the molecule “His-Survivin (from UniProt O15392 1-142)”, the binding entry in the assay with Flag-Aurora-C (human) was “binds”.
With HA-INCENP (from UniProt Q9NQS7 1-918), the binding entry with Flag-Aurora-B (human) and with Flag-Aurora-C (human) was “binds” in each case.

B1: 35S-labeled Aurora-C deletion mutant aa 41–220 (in vitro translated) (domain or fragment, UniProt Q9UQB9 41-220)
chain: DDFEIGRPLGKGKFGNVYLARLKESHFIVALKVLFKSQIEKEGLEHQLRREIEIQAHLQHPNILRLYNYFHDARRVYLILEYAPRGELYKELQKSEKLDEQRTATIIEELADALTYCHDKKVIHRDIKPENLLLGFRGEVKIADFGWSVHTPSLRRKTMCGTLDYLPPEMIEGRTYDEKV
modifications: 35S-methionine label
B1: the binding entry with GST-Survivin (human) is on record as “no binding”.

B2: 35S-labeled Aurora-C deletion mutant aa 41–250 (in vitro translated) (domain or fragment, UniProt Q9UQB9 41-250)
chain: DDFEIGRPLGKGKFGNVYLARLKESHFIVALKVLFKSQIEKEGLEHQLRREIEIQAHLQHPNILRLYNYFHDARRVYLILEYAPRGELYKELQKSEKLDEQRTATIIEELADALTYCHDKKVIHRDIKPENLLLGFRGEVKIADFGWSVHTPSLRRKTMCGTLDYLPPEMIEGRTYDEKVDLWCIGVLCYELLVGYPPFESASHSETYRR
modifications: 35S-methionine label
For the molecule B2, in the assay with GST-Survivin (human), the binding entry is reported as “no binding”.

B3: 35S-labeled Aurora-C deletion mutant aa 41–280 (in vitro translated) (domain or fragment, UniProt Q9UQB9 41-280)
chain: DDFEIGRPLGKGKFGNVYLARLKESHFIVALKVLFKSQIEKEGLEHQLRREIEIQAHLQHPNILRLYNYFHDARRVYLILEYAPRGELYKELQKSEKLDEQRTATIIEELADALTYCHDKKVIHRDIKPENLLLGFRGEVKIADFGWSVHTPSLRRKTMCGTLDYLPPEMIEGRTYDEKVDLWCIGVLCYELLVGYPPFESASHSETYRRILKVDVRFPLSMPLGARDLISRLLRYQPLE
modifications: 35S-methionine label
B3: the binding entry in the assay with GST-Survivin (human) is “no binding”.

B4: 35S-labeled Aurora-C full length (in vitro translated) (enzyme, UniProt Q9UQB9 1-309)
chain: MSSPRAVVQLGKAQPAGEELATANQTAQQPSSPAMRRLTVDDFEIGRPLGKGKFGNVYLARLKESHFIVALKVLFKSQIEKEGLEHQLRREIEIQAHLQHPNILRLYNYFHDARRVYLILEYAPRGELYKELQKSEKLDEQRTATIIEELADALTYCHDKKVIHRDIKPENLLLGFRGEVKIADFGWSVHTPSLRRKTMCGTLDYLPPEMIEGRTYDEKVDLWCIGVLCYELLVGYPPFESASHSETYRRILKVDVRFPLSMPLGARDLISRLLRYQPLERLPLAQILKHPWVQAHSRRVLPPCAQMAS
modifications: 35S-methionine label
In the case of B4, the binding result with GST-Survivin (human) was “binds”.

B5: Aurora-C (endogenous) (enzyme, UniProt Q9UQB9 1-309)
chain: MSSPRAVVQLGKAQPAGEELATANQTAQQPSSPAMRRLTVDDFEIGRPLGKGKFGNVYLARLKESHFIVALKVLFKSQIEKEGLEHQLRREIEIQAHLQHPNILRLYNYFHDARRVYLILEYAPRGELYKELQKSEKLDEQRTATIIEELADALTYCHDKKVIHRDIKPENLLLGFRGEVKIADFGWSVHTPSLRRKTMCGTLDYLPPEMIEGRTYDEKVDLWCIGVLCYELLVGYPPFESASHSETYRRILKVDVRFPLSMPLGARDLISRLLRYQPLERLPLAQILKHPWVQAHSRRVLPPCAQMAS
For B5, the binding result in assay [10] and in assay [11] was “binds” throughout.

B6: 35S-labeled Aurora-C deletion mutant aa 41–160 (in vitro translated) (domain or fragment, UniProt Q9UQB9 41-160)
chain: DDFEIGRPLGKGKFGNVYLARLKESHFIVALKVLFKSQIEKEGLEHQLRREIEIQAHLQHPNILRLYNYFHDARRVYLILEYAPRGELYKELQKSEKLDEQRTATIIEELADALTYCHDK
modifications: 35S-methionine label
On to B6, for which the binding entry in the assay with GST-Survivin (human) is listed as “no binding”.

B7: 35S-labeled Aurora-C deletion mutant aa 41–130 (in vitro translated) (domain or fragment, UniProt Q9UQB9 41-130)
chain: DDFEIGRPLGKGKFGNVYLARLKESHFIVALKVLFKSQIEKEGLEHQLRREIEIQAHLQHPNILRLYNYFHDARRVYLILEYAPRGELYK
modifications: 35S-methionine label
For the molecule B7, the binding result with GST-Survivin (human) is recorded as “no binding”.

B8: 35S-labeled Aurora-C deletion mutant aa 41–190 (in vitro translated) (domain or fragment, UniProt Q9UQB9 41-190)
chain: DDFEIGRPLGKGKFGNVYLARLKESHFIVALKVLFKSQIEKEGLEHQLRREIEIQAHLQHPNILRLYNYFHDARRVYLILEYAPRGELYKELQKSEKLDEQRTATIIEELADALTYCHDKKVIHRDIKPENLLLGFRGEVKIADFGWSVH
modifications: 35S-methionine label
B8: the binding entry with GST-Survivin (human) was “no binding”.

B9: 35S-labeled Aurora-C deletion mutant aa 41–291 (in vitro translated) (domain or fragment, UniProt Q9UQB9 41-291)
chain: DDFEIGRPLGKGKFGNVYLARLKESHFIVALKVLFKSQIEKEGLEHQLRREIEIQAHLQHPNILRLYNYFHDARRVYLILEYAPRGELYKELQKSEKLDEQRTATIIEELADALTYCHDKKVIHRDIKPENLLLGFRGEVKIADFGWSVHTPSLRRKTMCGTLDYLPPEMIEGRTYDEKVDLWCIGVLCYELLVGYPPFESASHSETYRRILKVDVRFPLSMPLGARDLISRLLRYQPLERLPLAQILKHP
modifications: 35S-methionine label
Consider B9, for which the binding entry in the assay with GST-Survivin (human) is on record as “no binding”.
